Measured values from PubChem BioAssay AID485294 (National Center for Advancing Translational Sciences (NCATS), 2010).
In all, about 370,000 compounds went through this assay and about 150 (0.041%) were called active. The inconclusive results got no clear call from the source; some entries with a clear call stand among them for comparison. Calls follow the shape of the dose curve; as a rule, active = well fitted inhibition curve with a large enough effect; inconclusive = small, poorly fitted or top-dose-only effect; inactive = flat fitted curve, though single readings scatter. No potency is given beside an inconclusive call; the fits are too rough.

Target: Beta-lactamase (Escherichia coli (strain K12)) (UniProt P00811)
Chain of UniProt P00811 (P00811 whole entry, looked up): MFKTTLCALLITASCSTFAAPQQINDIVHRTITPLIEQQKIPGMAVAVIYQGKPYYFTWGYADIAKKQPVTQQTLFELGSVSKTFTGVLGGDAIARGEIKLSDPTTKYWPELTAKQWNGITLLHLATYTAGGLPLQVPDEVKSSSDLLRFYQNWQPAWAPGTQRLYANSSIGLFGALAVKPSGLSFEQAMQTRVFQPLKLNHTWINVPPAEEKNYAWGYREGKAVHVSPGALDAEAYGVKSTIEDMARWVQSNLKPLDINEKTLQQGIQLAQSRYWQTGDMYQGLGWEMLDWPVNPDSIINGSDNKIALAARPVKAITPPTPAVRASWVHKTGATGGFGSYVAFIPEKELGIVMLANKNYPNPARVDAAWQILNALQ
Assay: qHTS Inhibitors of AmpC Beta-Lactamase (assay with detergent); also: nearly all actives have a fitted effect of over 25% in size
Conditions: AmpC hydrolysis of nitrocefin, absorbance 480 nm, 0.01% Triton; series mostly up to 114 µM
How it was run: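 20 mM phosphate pH 7.0 + 0.01% (detergent screen) or 0.0001% Triton X-100; 5.3 nM AmpC reagent; cpd preinc 15 min RT; nitrocefin (800 uM stock) to start; A480 q20 s × 4 min; Activity was normalised to no-enzyme and no-compound control wells.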
Potency is read from the fitted curve at half-maximal effect; tags tell the direction and shape of the fitted curve.

| Compound | Potency |
| --- | --- |
| CCOc1ccccc1OCCCNCc1ccco1 | inactive |
| C=CCOc1ccccc1OCC(O)CNC(C)C (centres undefined) | inconclusive [inhibitor, full curve, poor fit] |
| CC1CCCN(C(=O)COC(=O)Cc2ccc(Cl)cc2)C1 (centres undefined) | inconclusive [inhibitor, full curve, poor fit] |
| CN(CC(=O)Nc1cccc(F)c1)C(=O)CCc1nc2ccccc2c(=O)[nH]1 | inconclusive [inhibitor, full curve, poor fit] |
| Cc1cc(C)c(S(=O)(=O)N(CC(=O)NCc2cccnc2)C2CCCCC2)c(C)c1 | inconclusive [inhibitor, partial curve, poor fit] |
| COc1cccc(-c2cc(C(=O)N3CCN(c4ncccn4)CC3)c3ccccc3n2)c1 | inconclusive [inhibitor, full curve, poor fit] |
| CCN(CC(=O)Nc1c(F)cccc1F)C(=O)CSCC(=O)Nc1cc(C)on1 | inconclusive [inhibitor, full curve] |
| COc1cccc(C=Nc2ccc3c(c2)OCCO3)c1O | inconclusive [inhibitor, partial curve] |
| Nc1nc(Nc2ccccc2F)nc(N2CCCC2)c1[N+](=O)[O-] | inactive |
| Cn1c(SCc2nnc(-c3ccccc3)o2)nc2ccccc21 | inactive |
| COC(=O)c1[nH]c2ccc(C)cc2c1NC(=O)C(C)N1CCN(C2CCCCC2)CC1 (centres undefined) | inactive |
| CC(=O)NC(c1ccc([N+](=O)[O-])cc1)c1c(O)ccc2ccccc12 (centres undefined) | inconclusive [inhibitor, single point] |
| CC1CN(C(NC(=O)c2ccccc2)C(Cl)(Cl)Cl)CC(C)O1 (centres undefined) | inactive |
| COc1ccc(CCN2CC(C(=O)N(C)CCc3cn[nH]c3)CCC2=O)cc1 (centres undefined) | inconclusive [inhibitor, partial curve] |
| COc1cc2c(cc1OC)CN(CC(=O)Nc1ccc(S(=O)(=O)N(C)C)cc1)CC2 | inconclusive [inhibitor, partial curve, poor fit] |
| COc1cccc(C2=NN(S(C)(=O)=O)C(c3cccs3)C2)c1 (centres undefined) | inactive |
| COc1ccc([C@@H]2[C@@H]3C(=O)N(C(C)(C)C)C(=O)[C@@H]3[C@]3(Cc4ccccc4)C(=O)N(c4ccc(Br)cc4)C(=O)N23)cc1 | inconclusive [inhibitor, full curve, poor fit] |
| CCOC(=O)c1cc(-c2nnc(-c3ccc(Oc4ccccc4)cc3)o2)c(C)nc1C | inconclusive [inhibitor, full curve] |
| O=C(c1cc(S(=O)(=O)N2CCOCC2)ccc1F)N1CCCc2ccccc21 | inactive |
| COC(=O)c1ccc(NC(=O)CN(C)S(=O)(=O)c2ccc(OC)c(C)c2)cc1 | inconclusive [inhibitor, partial curve, poor fit] |
| Clc1ccccc1-c1nnc(CNC2CC2)o1 | inactive |
| COc1ccc(-c2noc(COc3ccc(Cl)c(C)c3)n2)cc1 | inconclusive [inhibitor, partial curve, poor fit] |

| Compound | Potency |
| --- | --- |
| Cc1ccc(S(=O)(=O)NCCC2(C(C)C)CCOC(C)(C)C2)cc1 (centres undefined) | inconclusive [inhibitor, full curve, poor fit] |
| O=C(NNc1ccc(C2CCCCC2)cc1)C(O)(c1ccccc1)c1cccs1 (centres undefined) | inconclusive [inhibitor, full curve, poor fit] |
| Cc1ccc2nc(SCC(=O)Nc3ccc4c(c3)OCCO4)[nH]c2c1 | inconclusive [inhibitor, partial curve, poor fit] |
| COc1ccc2cc(C(c3nnnn3C3CCCC3)N3CCc4ccccc4C3)c(=O)[nH]c2c1 (centres undefined) | inconclusive [inhibitor, partial curve, poor fit] |
| CCOc1ccccc1NC(=O)C(=O)NCC(c1cccnc1)N1CCN(c2ccccc2)CC1 (centres undefined) | inactive |
| COc1ccc(OC)c(S(=O)(=O)N2CCC(C(=O)N3CCCC3)CC2)c1 | inconclusive [inhibitor, partial curve, poor fit] |
| CC(C(=O)Nc1ccccc1F)N1CCN(S(=O)(=O)c2ccc(C(F)(F)F)cc2)CC1 (centres undefined) | inconclusive [inhibitor, partial curve, poor fit] |
| CCCCN(C(=O)c1ccc(C)c(S(=O)(=O)N2CCOCC2)c1)c1c(N)n(CCCC)c(=O)[nH]c1=O | inconclusive [inhibitor, partial curve, poor fit] |
| CC(COc1cccc2ccccc12)CN1CCN(C)CC1 (centres undefined) | inconclusive [inhibitor, full curve, poor fit] |
| CC(C)CCCNc1nc(N2CCOCC2)nc(N2CCOCC2)n1 | inconclusive [inhibitor, partial curve, poor fit] |
| COC(=O)[C@H]1[C@H](C(=O)OC)[C@@H](C(=O)OC)N(c2ccc(OC)cc2)[C@@H]1C(=O)OC | inconclusive [inhibitor, partial curve, poor fit] |
| O=C(NCc1ccco1)c1cnc2sccn2c1=O | inconclusive [inhibitor, full curve, poor fit] |
| CCN(CCNS(=O)(=O)c1ccc2[nH]c(=O)sc2c1)c1ccccc1 | inconclusive [inhibitor, full curve] |
| Cc1ccccc1N(CC(=O)NCCc1ccccc1)C(=O)c1ccc(N2CCCC2)nc1 | inconclusive [inhibitor, full curve, poor fit] |
| O=C(Nc1ccc2nc(SCC(=O)N3CCc4ccccc43)sc2c1)c1ccc(Cl)cc1 | inactive |
| CC(C)NC(=O)c1cccc(NC(=O)CC2SC(N3CCCCC3)=NC2=O)c1 (centres undefined) | inconclusive [inhibitor, full curve, poor fit] |
| C=CCN1C(=O)/C(=c2\sc3nc(=O)c(Cc4ccccc4)nn3c2=O)c2ccccc21 | inactive |
| Cc1cc(=O)oc2cc(NC(=O)Cc3ccccc3)ccc12 | inconclusive [inhibitor, single point] |
| C/C=C/C=C/C(=O)[C@@H]1[C@@H]([C@]2(C)OC(=O)C(C)=C2O)[C@H]2/C(=C(O)/C=C/C=C/C)C(=O)[C@]1(C)C(=O)C2(C)O (some centres undefined) | inactive |
| COc1ccc(NC(=O)C2Cc3ccccc3CN2C(=O)c2ccccc2)cn1 (centres undefined) | inactive |
| CN1/C(=C\C(=O)CSc2nncn2C)C(C)(C)c2ccccc21 | inconclusive [inhibitor, single point] |
| COC(=O)c1c(-c2ccccc2)csc1NC(=O)C1CC=CCC1C(=O)O (centres undefined) | inconclusive [inhibitor, full curve, poor fit] |

| Compound | Potency |
| --- | --- |
| COc1ccc(C2=NOC3(CC(=O)N(c4ccc(C)cc4)C3=O)C2)c(OC)c1 (centres undefined) | inconclusive [inhibitor, full curve, poor fit] |
| Cc1[nH]c(=O)[nH]c(=O)c1S(=O)(=O)NCC12CC3CC(CC(C3)C1)C2 | inconclusive [inhibitor, single point] |
| O=C(O)c1ccc(CNC(=O)c2ccc(Br)o2)cc1 | inconclusive [inhibitor, partial curve, poor fit] |
| O=P(NS(=O)(=O)c1ccc(Br)cc1)(Oc1ccccc1)Oc1ccccc1 | inconclusive [inhibitor, single point] |
| COC(=O)C1=C(c2ccc(F)cc2OCc2ccccc2)C[C@@H]2CC[C@H]1N2C(=O)NCc1ccccc1OC | inactive |
| O=C(Nc1nc2ccccc2[nH]1)c1cccc(Cl)c1 | inactive |
| O=C(c1cccc(S(=O)(=O)N2CCOCC2)c1)N(Cc1ccco1)Cc1cccs1 | inconclusive [inhibitor, partial curve, poor fit] |
| COc1ccc2c(=O)c(C(=O)O)c(-c3ccc4c(c3)OCO4)n(C)c2c1 | inconclusive [inhibitor, partial curve] |
| Cc1ccc(Sc2cc(C(=O)NCCN(C)C)c3ccccc3n2)cc1 | inactive |
| Cn1nnnc1Sc1ncnc2scc(-c3ccccc3C(F)(F)F)c12 | inactive |
| Nc1nnc(SCc2nc3scc(-c4ccccc4)c3c(=O)[nH]2)s1 | inconclusive [inhibitor, full curve, poor fit] |
| CC1CN(C(C)C)C(C)CC1OC(=O)c1ccccc1 (centres undefined) | inconclusive [inhibitor, partial curve, poor fit] |
| CCn1c(=O)c(C(=O)NNC(=O)c2ccccc2Br)c(O)c2ccccc21 | inconclusive [inhibitor, partial curve, poor fit] |
| COc1ccc(C)cc1S(=O)(=O)N1CCCCCC1 | inactive |
| C[C@@H]1C[C@H]2[C@@H]3CCC4=CC(=O)C=C[C@]4(C)[C@@]3(F)[C@@H](O)C[C@]2(C)[C@H]1C(=O)CO | inactive |
| CCOC(=O)CN1C(=O)CCSc2ccc(Cl)cc21 | inconclusive [inhibitor, single point] |
| COC(=O)Cn1cc(/C=C/c2cc[n+](C)cc2)c2ccccc21 | inconclusive [inhibitor, partial curve] |
| COC(=O)c1ccc(CNC(=O)c2ccc3c(c2)OCCO3)cc1 | inactive |
| COC(=O)[C@H](Cc1ccccc1)NC(=O)Nc1ccc(S(N)(=O)=O)cc1 | inconclusive [inhibitor, full curve, poor fit] |
| Cc1cc(C)cc(NC(=O)C2CCCN2S(=O)(=O)c2cccc3cccnc23)c1 (centres undefined) | inconclusive [inhibitor, full curve] |
